From the supplement of paper PMC11417369
± gives the standard deviation of the averaged measurements. The list shows a part of the results.

What follows are sequences tested on PfAP2-LT AP2 domain (GST-tagged) (assay: gcPBM binding intensity (ln(normalized median fluorescence intensity)); higher = stronger DNA binding).
Procedure, shortened: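 Binding intensity is defined as the maximum Masliner-normalised natural-log median intensity across replicate spots for either probe orientation. It was measured on an Agilent 4 × 180k array of primer-extended double-stranded 36-bp intergenic genomic probes and negative controls, to which GST-tagged P. falciparum DNA-binding domains made in E. coli were applied for 1 h in 1× PBS with 1% milk, 0.2 mg/ml BSA, 0.5% salmon testes DNA and 0.03% Triton X-100. Detection was by Alexa488 anti-GST antibody and scanning at 488 nm.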

Sequence	gcPBM binding intensity (ln)
ACATCAAGCAGACACACACACACACCCACCCACCGA [CACACA_site371]	10.4 ± 0.11
TAGAAATATAATTAATGTACATATGATATTATATAT [XGTACX_site923]	8.62 ± 0.42
ATTTATTTATATAGAAGTACATATTTATTTATATAT [XGTACX_site6283]	8.52 ± 0.42
CGATTACTAATTTTTAGTACATATAATCAATATGTA [XGTACX_site7857]	8.4 ± 0.42
ATCTATTTCTATTGTTGTACTTATTTTTCATTGTTT [XGTACX_site6942]	9.3 ± 0.44
ATGTAGCCTTACGCTTGTACGAATATCTTAATTTTT [XGTACX_site4331]	8.78 ± 0.4
AAAAAAAATAGACACACACACATACACATAAATATA [CACACA_site7742]	9.82 ± 0.38
AGGGTTACAAGAGGAACACACAAAAAAATAAATAAA [CACACA_site1436]	9.02 ± 0.71
TTTGTAATAAACTACTTTTTTTTTTTTTTTTTTTTT [CACACA_negctrl_site571]	8.495 ± 0.078
ATTAAATCTATATATACACACATGTTTGGTATATTC [CACACA_site2657]	9.22 ± 0.33
TTTATATTACAATAATATATTAAAAAATAAAATATA [TGCATGCA_negctrl_site18]	8.16 ± 0.54
ATTTTTTTATTTGATTGTACAATTTTCTTTCAAAAT [XGTACX_site2902]	8.76 ± 0.36
TATACAATATAAAATACACACGCACCCAAAAAAAAA [CACACA_site9174]	9.44 ± 0.27
ATATAATGTGTAGGCCGTATTTACGTTTGGCAATCA [CACACA_negctrl_site1130]	8.99 ± 0.56
TATAATATAATATATATATATATATATATATAAGAA [CACACA_negctrl_site78]	8.96 ± 0.36
TTCATATAAATACATGCACACAAAAATATCAATACA [CACACA_site8753]	9.12 ± 0.33
ATATATTTTATTACCAGTACATATATTAAAATAATA [XGTACX_site8440]	8.39 ± 0.38
ATTAAAGAGATATATACACACATTATGGGGGAATAA [CACACA_site6226]	9.12 ± 0.36
ATAGAAATTATAAATAGTACATAATAAAAATGAGCA [XGTACX_site822]	8.94 ± 0.58
CCTAAATATTTTTTATGTACATATTTATCTAAATTT [XGTACX_site6835]	8.7 ± 0.54
TGAGGAAACATGAGATGTACATATAAATTTTTTTTT [XGTACX_site2595]	8.78 ± 0.58
TATTATAAAGAAATTACACACATGCAATGAAAAAAA [CACACA_site1697]	8.96 ± 0.45

Sequence	gcPBM binding intensity (ln)
TCGTTTCCTTAAAATTGTACTTTTTTTTTTTTTTTT [XGTACX_site64]	8.57 ± 0.54
AGAGTATATATATATGCATGCATATCTCATATTTAT [TGCATGCA_site509]	9.24 ± 0.4
TGTTATTATTTGTACACACACATATAGATCCTTGTT [CACACA_site7667]	9.54 ± 0.33
TAATGATAAATACATACACACAAAAAATAATATATA [CACACA_site2576]	9.13 ± 0.47
AAACAAAATGGTAACACACACATATATAAATATGTA [CACACA_site6994]	9.38 ± 0.47
TAAGAAATAAATAGTACACACATAGACACCCACCCA [CACACA_site8429]	10.1 ± 0.28
TCATAGTATGGACACACACACACACCCATATATATA [CACACA_site5033]	10 ± 0.25
TATTATATTAATGATGGTACAGTGTATATATATAAT [XGTACX_site1286]	8.71 ± 0.43
TTGGGTCAAACATAAACACACACAAAAAGAAAAAAT [CACACA_site8328]	9.34 ± 0.52
ACATATAATATAAAGTGTACAAGAAAATAAAAATAA [XGTACX_site1273]	9.09 ± 0.53
TTTCCATATTTTTAAAGTACATATTTCCGTTTCCAC [XGTACX_site7832]	8.67 ± 0.54
GGGATATTTTAAAGGGTGCATATTATTAAAATAATG	8.61 ± 0.35
TTATTTGATTACTTGCGTACTTATTTCATATTTTTT [XGTACX_site6648]	9.14 ± 0.47
ATGAGAAAACATAAAAGTACAAAAAGAAAAAAAAAA [XGTACX_site6020]	8.84 ± 0.53
TTTATTTTATAATTCACACATATATACCTATTTTAT [CACACA_site5709]	8.85 ± 0.4
TAAACAGACATATAAACACACATATAAACAGACATA [CACACA_site7214]	9.31 ± 0.41
GTGTGGTGCTCGAGGAGTACAAACAATATGTAATTT [XGTACX_site4160]	8.99 ± 0.58
AATATAAGTAATTATACACACTTAATATTTATATAC [CACACA_site7334]	8.82 ± 0.42
TTTTCTTCCTATTATTGTACATATAGTATTCTTTCA [XGTACX_site4428]	8.87 ± 0.49
TAATAATAAACAACCACACACAAAAAAACAAAAAAA [CACACA_site3269]	9.4 ± 0.36
ATTTAATTATGTAAGTGTACTTTGGAATATAATATT [XGTACX_site3186]	8.56 ± 0.38
GTAGCACATATATATTGTACATAATATATACATTAT [XGTACX_site6354]	8.95 ± 0.3

Sequence	gcPBM binding intensity (ln)
TTAAAATTCAAAAAAAAAAATCAGAATATCAGAAAA [CACACA_negctrl_site1361]	8.29 ± 0.43
TATATAACATAATATACACACATTATATGCGTAATT [CACACA_site6098]	9.03 ± 0.27
GATATATAAATAAATACACACATAAAATAGAAATAT [CACACA_site6881]	9.19 ± 0.4
ATTAAAGAAATATATACACACATTATGGGGGAATAA [CACACA_site178]	9.05 ± 0.4
GTTAGGATAGATTAGACATGCACATAAATGCACTTC [TGCATGCA_site561]	8.75 ± 0.49
TTTTTATAGAATTTAACACACATTTCATATAAAAAA [CACACA_site7453]	8.29 ± 0.31
TATATGCTATAATATACACACATACCTATATTTATA [CACACA_site6383]	9.04 ± 0.45
AATTTAAGCAGAACATATATATATATATATATAAAG [CACACA_negctrl_site769]	9.53 ± 0.27
AATTATTTCTTTTACACATGCAATATTTAATTAAAA [TGCATGCA_site598]	8.37 ± 0.42
TTTAAATGCTTTTTGTGGTGACTTATCCTTTCATAA [XGTACX_negctrl_site109]	8.63 ± 0.49
ACATATTAAAATATATGTACATAAAATATGAAAAAA [XGTACX_site5869]	8.96 ± 0.47
ATATTTATTCCTTTTGGTACACAAAAAAAAAAAAAA [XGTACX_site8126]	8.33 ± 0.37
GTAATAAATTAAATATGTACATATTAAAATTAAGGA [XGTACX_site2290]	8.85 ± 0.54
ATTGATACATCCAATACACACTACAGATAATGATGT [CACACA_site5098]	9.16 ± 0.32
GAATTAATTTTAAAACGTACATGGGTGTATTTACAC [XGTACX_site5939]	8.71 ± 0.38
TTCTTTTTTGTAATAACACACACACTAACAGAAAAA [CACACA_site8646]	9.16 ± 0.4
CATAATACAAATGTGATACCTGAAAATGACTTATTA [CACACA_negctrl_site994]	8.78 ± 0.49
TGCTACATAATATGTACACACATATACATATTTATA [CACACA_site6545]	8.98 ± 0.37
GTATGATTAAATAAAGGTACACTTATATTTATTTAT [XGTACX_site6966]	8.56 ± 0.45
TATCACATTTATGAGAGTACATAATTAATTCATGAT [XGTACX_site7850]	8.63 ± 0.4
TTTTATTTTATATAACAACAAAATGGAAATATATAT [GTGCAC_negctrl_site71]	8.3 ± 0.48
GTCAATATTTAGATATGTACTAAGGAGTGCTATATA [XGTACX_site222]	8.77 ± 0.51

Sequence	gcPBM binding intensity (ln)
ATATTATGAAGGGATATTTTCAAAAATATTAGGAGA [CACACA_negctrl_site942]	8.49 ± 0.49
TAAATGAAAATAAATTAACACACAATTTTAATATTG [CACACA_site8360]	8.62 ± 0.46
AATTATACATATATTTAACACACATTTTATAAAGTG [CACACA_site8362]	8.81 ± 0.32
ATATATATATATAATTGTACATGTGTGTATAATTTG [XGTACX_site2417]	9.38 ± 0.18
ATACAACAGATATATACACACATATAACAATAATAA [CACACA_site7560]	9.38 ± 0.43
TTGGAATAATATAAATAAATAAATATATATATATAT [CACACA_negctrl_site900]	8.91 ± 0.092
AAAAAAAAAAAATGTGCACACGCGTACACCCAAAAA [CACACA_site8614]	9.03 ± 0.4
TTTCTTTTTGTTCGTGTACACACATGAAATTTATAA [CACACA_site8466]	8.95 ± 0.45
CAATTTTTATGTGTGTGTACTCATTTGTTTTATAAA [XGTACX_site406]	9.21 ± 0.35
AATAGATATATAAATACACACAAACATACCTATATA [CACACA_site7823]	9.41 ± 0.32
AAACAAAGGGAACATGTGCACTTACAAAAAAAAAGA	9.03 ± 0.54
TCACACCTTTTTGGTTGTACTTAAATTTCTTTTTTT [XGTACX_site6438]	8.49 ± 0.49
TTCCCTTATTTTGTATGTACACAATTTATCATGTTG [XGTACX_site2896]	9.21 ± 0.43
ATATATATATATGCATGTACATATATTTGTTATATC [XGTACX_site3197]	9.62 ± 0.2
ATTTATTTTAATTTTTTTTTTTCTCTTTTGGATCTA [CACACA_negctrl_site1408]	8.39 ± 0.54
ATTAGGCATATTTTCTGTACACAATAATAAAAAAAA [XGTACX_site3957]	8.49 ± 0.46
TGTAATATGAAATGTGTACACACGCACCCACAAAAA [CACACA_site8948]	9.38 ± 0.36
TTCTCAAAGTTTACGTGTACATAAATTATATAAATG [XGTACX_site2622]	8.48 ± 0.42
AATGAATTTAATTCTACTATTTTTTTTTTAAATATT [XGTACX_negctrl_site296]	8.33 ± 0.35
TACATACATACATACACACACACATCTATATTTATA [CACACA_site6171]	9.81 ± 0.26
GACAGATTATAGCATAGTACTCATACATACATACAT [XGTACX_site1252]	9.09 ± 0.46
TTTCAAAAATTATTTTGTACATATAATTAATATACG [XGTACX_site512]	8.51 ± 0.38
